In the supplement of paper PMC11417369:
Some of the results follow.

Each sequence was assayed on PF3D7_0420300 AP2 domain 1 (GST-tagged) (assay: gcPBM binding intensity (ln(normalized median fluorescence intensity)); higher = stronger DNA binding).
Procedure, shortened: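 Probes on an Agilent 4 × 180k array were primer-extended, double-stranded and 36 bp long, taken from intergenic genomic regions, with negative controls added. GST-tagged P. falciparum DNA-binding domains from E. coli, about 25 μg on average, were applied to the array for 1 h in 1× PBS containing 1% milk, 0.2 mg/ml BSA, 0.5% salmon testes DNA and 0.03% Triton X-100. Binding intensity, obtained after Alexa488 anti-GST antibody detection and a 488 nm scan, is the highest Masliner-normalised natural-log median intensity across replicate spots of either probe orientation.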
In the case of “TGAAATTTATAATAGTGTACAAAGAAAAAAAAAAAA [XGTACX_site4965]”, the “gcPBM binding intensity (ln)” value is reported as 9.21.
In the case of “AGCTCTATATTTTACACATGCGATTTGGATATATAT [TGCATGCA_site105]”, the “gcPBM binding intensity (ln)” value is reported as 9.37.
In the case of “TAAATATATATCATCACACACACATACATAAATATA [CACACA_site183]”, the “gcPBM binding intensity (ln)” value is reported as 9.91.
With “CCTTTATATTATAAAAGTACATAATATTTTATAAGT [XGTACX_site1629]” the “gcPBM binding intensity (ln)” value was 8.96.
For “ATATTACAACGTAACGAATATTTCATAAATTCTTAA [CACACA_negctrl_site770]”, the “gcPBM binding intensity (ln)” value was 9.06.
“ATTTCTCAATCGTAATGTACAAAAAAAAGGAAAAAA [XGTACX_site1193]” was tested, and the “gcPBM binding intensity (ln)” value was 9.08.
In the case of “TTATATAGATGGAATAGTACAGTATATATATATATA [XGTACX_site8755]”, the “gcPBM binding intensity (ln)” value is reported as 9.41.
“GGTATAAAGAAATTTTGTACATATTTCTCCCTTTAA [XGTACX_site1874]” was tested, and the “gcPBM binding intensity (ln)” value was 9.09.
In the case of “CGCATACACGGACACACACACACATATATATATATA [CACACA_site4520]”, the “gcPBM binding intensity (ln)” value is reported as 10.1.
“TAATATATAAGAAACAAAAAAAAATAAAAATATATA [TGCATGCA_negctrl_site153]” was tested, and the “gcPBM binding intensity (ln)” value was 9.54.
“TAAAATAATTCGTAACGTACATATGTAATATAATAT [XGTACX_site6126]” was tested, and the “gcPBM binding intensity (ln)” value was 9.39.
For “AAAAAAAAAAAACACACACACACACTAATATATAAA [CACACA_site8302]”, the “gcPBM binding intensity (ln)” value was 10.2.
For “TTTTTTTTGTATTTTTCACACACTCTCTATCTCTCT [CACACA_site8655]”, the “gcPBM binding intensity (ln)” value was 9.55.
In the case of TGAAAATAATTATAGGTGCATAAACATACGGATCTT, the “gcPBM binding intensity (ln)” value is reported as 9.55.
For “TATAAAAATAATATTACACACATGTAAAATGCCCGT [CACACA_site7522]”, the “gcPBM binding intensity (ln)” value was 9.56.
With “ATATATTAATAATAAATTAAAAGGAGTAACATTTTC [CACACA_negctrl_site320]” the “gcPBM binding intensity (ln)” value was 9.22.
For “ATATTTTATTTTCCATGTACACAAAAAAAAAAAAAA [XGTACX_site8327]”, the “gcPBM binding intensity (ln)” value was 8.7.
“TTTTTTTTTTTCTTTGCACACAGATAACTTGAAATT [CACACA_site2184]” was tested, and the “gcPBM binding intensity (ln)” value was 9.3.
“AATTTAATTATGGTAACACACAATAAAAAAAAATCT [CACACA_site568]” was tested, and the “gcPBM binding intensity (ln)” value was 9.56.
“AGGTTAAAAATAAATACACACATTTTATGGGTGTAT [CACACA_site4702]” was tested, and the “gcPBM binding intensity (ln)” value was 9.48.
For “AAGAAAATAAAGGATATGAAAAATAAAAAAAAGGAG [TGCATGCA_negctrl_site265]”, the “gcPBM binding intensity (ln)” value was 9.83.
“ATATTATTAATATATTGTACTTTTTTTTTTTTATTT [XGTACX_site496]” was tested, and the “gcPBM binding intensity (ln)” value was 9.48.
“ATATGTATTTAATTCACACAAAAATATGTTCATGAA [CACACA_site5223]” was tested, and the “gcPBM binding intensity (ln)” value was 9.09.
With “CACATTATGTATCATACACACAAATAAATATATAAT [CACACA_site4505]” the “gcPBM binding intensity (ln)” value was 9.7.
In the case of “TTTTTTTTTTGCACGTGTACATAAAAATATATATAT [XGTACX_site3116]”, the “gcPBM binding intensity (ln)” value is reported as 9.11.
With “AAAATATATTCAACTTGTACATATATATATATATAT [XGTACX_site7629]” the “gcPBM binding intensity (ln)” value was 9.13.
“TTTTTGTAATGACACACACACAAACAGAAAAAATAA [CACACA_site7062]” was tested, and the “gcPBM binding intensity (ln)” value was 9.9.
In the case of “TTATATATTTTGATTGCACACAGAATTTAAATCATG [CACACA_site8735]”, the “gcPBM binding intensity (ln)” value is reported as 9.3.
“ATATTTAAGATTTAATCACACACATATATATTATAT [CACACA_site8946]” was tested, and the “gcPBM binding intensity (ln)” value was 9.5.
With “ATAAAATAAAGGAAAAATATTAAGTTTTAAGAAAAT [CACACA_negctrl_site1066]” the “gcPBM binding intensity (ln)” value was 9.14.
“ATATATGTGCTAAAATGTACATAGTATAATATATTT [XGTACX_site1949]” was tested, and the “gcPBM binding intensity (ln)” value was 9.36.
With “TTTAATCATTTTAGCTTACACACAAAATTTTGTTAT [CACACA_site2938]” the “gcPBM binding intensity (ln)” value was 9.74.
“TTCTCACTTTTAAATTTTATTCAAAAATAAGGAAAG [XGTACX_negctrl_site444]” was tested, and the “gcPBM binding intensity (ln)” value was 8.55.
“ATATATATATATAAATGTACATATGTATAATTCATA [XGTACX_site6679]” was tested, and the “gcPBM binding intensity (ln)” value was 9.28.
In the case of “ATTTCGTTCTTTTATGCACACTCAACATATAAATTA [CACACA_site8322]”, the “gcPBM binding intensity (ln)” value is reported as 9.75.
With “GAGAGTAAAACAAATATACACACCATAAAGTTATAA [CACACA_site1686]” the “gcPBM binding intensity (ln)” value was 9.49.
For “TATTTTTCCATATGCACACACACCGTATCTAGAATA [CACACA_site6654]”, the “gcPBM binding intensity (ln)” value was 9.93.
In the case of “TACATAAACATTTATACACACATTATGTATACATAT [CACACA_site405]”, the “gcPBM binding intensity (ln)” value is reported as 9.61.
“GGATTTTTCGAATCATGTACATATTTAATTAAAAAA [XGTACX_site7939]” was tested, and the “gcPBM binding intensity (ln)” value was 8.87.
“TAGAATGTATGTAGTGCACACCTCTATAATATATTA [CACACA_site1873]” was tested, and the “gcPBM binding intensity (ln)” value was 9.4.
“AACTTTGGCAAACACACACACACACCCACACCCACA [CACACA_site588]” was tested, and the “gcPBM binding intensity (ln)” value was 10.3.
For “CCGTTGAACATATATGCACACACATAAAATAAAAAA [CACACA_site8761]”, the “gcPBM binding intensity (ln)” value was 9.52.
With “ATATTTTTTTTTTTTTGTACATATATCATTATATAT [XGTACX_site866]” the “gcPBM binding intensity (ln)” value was 9.4.
“TGGTTACTGTCATTAGTTATTTCTTGTTGACAATTA [CACACA_negctrl_site416]” was tested, and the “gcPBM binding intensity (ln)” value was 9.32.
With “TTTTTGTCTGCATACGCACACACGTGTACCATCTTA [CACACA_site1173]” the “gcPBM binding intensity (ln)” value was 9.88.
With “TAGATACATAAAAGTGGTACATATATATATATATAT [XGTACX_site6263]” the “gcPBM binding intensity (ln)” value was 9.33.
For “AATATTTATATTTACACACACATAATACCTATATGT [CACACA_site6167]”, the “gcPBM binding intensity (ln)” value was 9.91.
In the case of “TGGAAATTCTCAGGAGTGCATATTTGCAGTTTACGT [GTGCAC_site9768]”, the “gcPBM binding intensity (ln)” value is reported as 9.13.
With “ATGGTTAAAAAAAGCATACACACTATCCTCTTTGCT [CACACA_site2552]” the “gcPBM binding intensity (ln)” value was 9.44.
“TTTGTTGACGGACACACACACATACAGATATATATA [CACACA_site5292]” was tested, and the “gcPBM binding intensity (ln)” value was 9.89.
“ATAATAAATTATTATGTACACACATAATAGTATATA [CACACA_site8538]” was tested, and the “gcPBM binding intensity (ln)” value was 9.39.
In the case of “ATTATTTTTAAAAATTGTACAGTATAAGAGAGAAAT [XGTACX_site7094]”, the “gcPBM binding intensity (ln)” value is reported as 9.35.
For “TATTGTAAAAAGATTACACACGTTCTATATACTTTT [CACACA_site5379]”, the “gcPBM binding intensity (ln)” value was 9.48.
For “AATAAAAAAATATATTGTACTAATAATTATATGTTT [XGTACX_site2246]”, the “gcPBM binding intensity (ln)” value was 9.09.
With “TTAATGGCAAAATAGGCACACACACCGATACATATA [CACACA_site8263]” the “gcPBM binding intensity (ln)” value was 9.91.
“ACAGTAGCCAGTAACTGTACGGATTGTAGAGATCAG [XGTACX_site4873]” was tested, and the “gcPBM binding intensity (ln)” value was 9.24.
